Test results taken from PMC4336329 (PLoS ONE, 2015).
About 2,200 (0.71%) of roughly 310,000 compounds showed an effect of 50% or more. Effects have a minus sign here. This is one part of the list.

target: human ether-à-go-go-related gene (hERG) potassium channel (human, UniProt Q12809); test: primary screen, population patch clamp on CHO cells stably expressing hERG
Sequence (Q12809 whole entry, looked up): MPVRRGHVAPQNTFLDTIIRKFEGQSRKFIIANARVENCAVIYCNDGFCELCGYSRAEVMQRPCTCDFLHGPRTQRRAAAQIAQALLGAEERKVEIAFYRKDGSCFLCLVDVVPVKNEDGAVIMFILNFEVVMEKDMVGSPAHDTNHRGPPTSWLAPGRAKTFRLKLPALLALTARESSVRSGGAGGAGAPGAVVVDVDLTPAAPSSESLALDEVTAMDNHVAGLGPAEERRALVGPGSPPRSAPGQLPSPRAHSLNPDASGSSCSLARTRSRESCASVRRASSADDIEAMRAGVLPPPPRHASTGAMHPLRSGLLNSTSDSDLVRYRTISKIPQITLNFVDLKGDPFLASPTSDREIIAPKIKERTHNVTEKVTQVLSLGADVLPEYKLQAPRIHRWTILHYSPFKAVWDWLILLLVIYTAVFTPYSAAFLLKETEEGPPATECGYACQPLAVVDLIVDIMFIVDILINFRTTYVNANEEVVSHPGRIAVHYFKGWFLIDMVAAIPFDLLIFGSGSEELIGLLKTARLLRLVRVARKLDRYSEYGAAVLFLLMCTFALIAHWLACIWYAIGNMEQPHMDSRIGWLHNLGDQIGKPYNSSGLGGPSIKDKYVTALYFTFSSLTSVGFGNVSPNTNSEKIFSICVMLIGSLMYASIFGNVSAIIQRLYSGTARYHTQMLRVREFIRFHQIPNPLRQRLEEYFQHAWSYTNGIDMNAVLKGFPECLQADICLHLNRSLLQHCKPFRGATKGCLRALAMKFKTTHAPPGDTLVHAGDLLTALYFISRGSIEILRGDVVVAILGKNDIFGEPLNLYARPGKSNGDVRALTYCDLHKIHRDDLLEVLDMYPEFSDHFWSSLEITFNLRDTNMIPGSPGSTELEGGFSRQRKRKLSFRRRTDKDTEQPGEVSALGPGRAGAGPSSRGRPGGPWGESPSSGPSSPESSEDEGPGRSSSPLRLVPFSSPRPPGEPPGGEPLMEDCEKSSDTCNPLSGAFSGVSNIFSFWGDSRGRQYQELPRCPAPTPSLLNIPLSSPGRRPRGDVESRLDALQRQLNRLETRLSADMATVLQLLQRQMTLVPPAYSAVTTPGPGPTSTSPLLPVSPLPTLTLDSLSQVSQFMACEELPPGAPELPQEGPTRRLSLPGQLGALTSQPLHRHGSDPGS

| Structure (SMILES) | hERG current change (%, negative = inhibition) at 1uM [%] |
| --- | --- |
| COc1ccc(CCN2C(=O)c3ccccc3C2(O)c2ncc[nH]2)cc1OC (stereo not shown) | 9.94 |
| CSc1nc(C)nc2c1c(=O)n(C)c(=O)n2C | -4.06 |
| O=C(COC(=O)c1cccc(NS(=O)(=O)c2ccc(F)c(F)c2)c1)NC(=O)NC1CCCC1 | 10.9 |
| C=CCN1C(=O)CSc2ccc(C(=O)N3CCC4(CC3)OCCO4)cc21 | 4.55 |
| Cn1c(=O)[nH]c(=O)c2[nH]c(CN3CCN(C(=O)c4ccco4)CC3)nc21 | 2.64 |
| O=c1[nH]cc(N(CCO)CCO)c(=O)[nH]1 | 15.3 |
| O=C(O)CCC(=O)Nc1ccc(/C=C/C(=O)C2CC2)cc1 | 15.3 |
| Cc1c(NC(=O)C(C)OC(=O)c2cccc(S(=O)(=O)N3CCOCC3)c2)c(=O)n(-c2ccccc2)n1C (stereo not shown) | 2.19 |
| Cc1cc(NC(=O)C2CC(c3c(F)cccc3Cl)=NO2)n(-c2ccccc2)n1 (stereo not shown) | 7.8 |
| Cn1c(CCN2CCCCC2)nc2cc(NS(=O)(=O)c3ccc(Cl)cc3)ccc21 | -59.1 |
| Nc1c(C(=O)CSc2nnc(-c3ccccc3F)o2)c(=O)[nH]c(=O)n1C1CC1 | 16.3 |
| Cc1ccc(N2CCN(CC(O)COc3cccc(C)c3)CC2)cc1 (stereo not shown) | -0.983 |
| Cc1cccc[n+]1CCCCCCCCCC[n+]1ccccc1C.[Br-] | 20.8 |
| CC(C)NC(=O)NC(=O)COC(=O)/C=C/c1ccccc1[N+](=O)[O-] | 16.4 |
| Cc1cc(N2CCN(C)CC2)nc2ccc(NC(=O)c3ccc4c(c3)OCO4)cc12 | -40.4 |
| OC(CNCc1ccc(Cl)cc1)C(F)(F)F (stereo not shown) | 10.8 |
| O=C(c1ccccc1Cl)N(Cc1ccccc1F)N1C(=O)CCCC1=O | 12.4 |
| O=C(c1ccc(-c2nnc(Nc3cccc(Cl)c3)c3ccccc23)cc1)N1C[C@H]2C[C@H](C1)c1cccc(=O)n1C2 | 9.68 |
| CC(=O)c1cccc(NC(=O)C(C)N2CCc3ccccc3C2)c1 (stereo not shown) | 6.85 |
| CC(=O)N1CCN(c2ccc(Oc3ncnc4sccc34)cc2)CC1 | 10.7 |
| CCN(CC(=O)NCc1cccs1)S(=O)(=O)c1ccc([N+](=O)[O-])cc1 | -37 |
| COc1ccccc1NC(=O)Oc1ccc(C(C)=O)cc1 | 13.2 |
| O=c1[nH]c2ccc(NC(=S)Nc3ccccc3)cc2[nH]1 | 13.2 |
| CCc1ccc(-c2cc(C(F)(F)F)n3nc(C(=O)Nc4cnn(Cc5ccc(C)cc5)c4)cc3n2)s1 | -3.33 |
| Cc1ccc(CNC(=O)c2cccc(-n3cnnn3)c2)cc1 | -0.774 |
| COCCCNC(=O)c1cc(OC)c(OC)c(OC)c1 | 1.89 |
| CCCCNc1c([N+](=O)[O-])c(=O)n(C)c2ccccc12 | 9.26 |
| Cc1ccc(C)n1-c1cccc(S(=O)(=O)N2CCOCC2)c1 | 12.4 |

| Structure (SMILES) | hERG current change (%, negative = inhibition) at 1uM [%] |
| --- | --- |
| CCNc1nc(NCC)n2c(SCC(=O)Nc3cc(OC)ccc3OC)nnc2n1 | 11.7 |
| O=C(Nc1ccc(F)cc1)c1nc[nH]c1C(=O)O | 18.5 |
| CCOc1ccc(N(CC(=O)NC(C)CC)S(C)(=O)=O)cc1 (stereo not shown) | -0.392 |
| COc1ccccc1N1CCN(Cc2nnnn2CCc2ccccc2)CC1.Cl | 10.7 |
| C/C(N)=C(/C#N)C(=O)CSc1nc2ccccc2c(=O)n1CCCO | 6.77 |
| COc1cc(NC(=O)COc2ccc(Br)cc2)ccc1NC(=O)C(C)C | 11.2 |
| CCCCCCNCc1cccc(Br)c1.Cl | 0.985 |
| C/C=C/c1ccc(OCCCNCC(C)O)c(OC)c1 (stereo not shown) | 0.175 |
| CCOc1ccc(N(CC(=O)Nc2ccc(C)cc2)S(=O)(=O)c2c(C)[nH]c(=O)[nH]c2=O)cc1 | 4.23 |
| Cc1cc(C)n(C2CCCCC2OC(=O)CCc2ccccc2)n1 (stereo not shown) | 10 |
| CCCc1cc(C(=O)NCc2ccc(OC)cc2)no1 | 11.8 |
| Cc1ccc(-n2c(SCc3cn4ccsc4n3)nc3ccccc3c2=O)cc1 | 6.91 |
| COc1ccc(C(=O)CSc2ccc(-c3ccccc3)nn2)cc1 | 10 |
| CCOc1ccc(-n2c(SCC(=O)Nc3cc(C)on3)nnc2-c2c[nH]c3ccccc23)cc1 | 4.06 |
| CCCCCC(=O)Nc1cc(S(=O)(=O)N2CCOCC2)ccc1Oc1ccc(OCC)cc1 | -12.1 |
| CC(C)(C)NCC(O)c1cc(O)cc(O)c1.O=S(=O)(O)O (stereo not shown) | 15.1 |
| Cc1ccc(S(=O)(=O)N2CCN(c3cc4c(cc3[N+](=O)[O-])n(C)c(=O)n4C)CC2)cc1 | -1.14 |
| COC(=O)c1ccc(NS(=O)(=O)c2c(C)[nH]c(C)c2C(=O)N2CCCC2)cc1 | 3.91 |
| CCN1CCN(CCNC(=O)c2ccc(CS(=O)(=O)c3c(Cl)cccc3Cl)o2)CC1 | 2.25 |
| Cc1ccc(NC(=S)Nc2ccc(F)cc2)cc1 | 7.78 |
| COc1cc(C(=O)NC(C)c2ccc(-n3ccnc3)cc2)cc(OC)c1C (stereo not shown) | -20.4 |
| CCC(=O)Nc1ccc(NC(=O)c2ccco2)c(OC)c1 | -1.62 |
| O=S(=O)(NCCCN1CCOCC1)c1ccc2c(c1)OCCO2 | 18.4 |
| CC(Oc1ncnc2ccccc12)C(=O)Nc1cccc(S(=O)(=O)N2CCOCC2)c1 (stereo not shown) | 7.85 |
| Cc1nn(-c2ccc([N+](=O)[O-])cc2)c2c1C(c1ccc(OC(F)F)cc1)N1C(=N2)C(=O)Nc2ccccc21 (stereo not shown) | 0.442 |
| O=C(NCc1ccc2c(c1)OCO2)c1cccc([N+](=O)[O-])c1 | 1.45 |
| Cc1nn(C)cc1CNC(=O)c1cnn2c1NC(c1ccc(Br)cc1)CC2C(F)(F)F (stereo not shown) | -3.44 |
